This is one part of the list. The full chains were built here from the parent and the listed change. Values near 0.05 are background.
B1: TEV protease; numbered along this chain (parent)
chain: MGESLFKGPRDYNPISSSICHLTNESDGHTTSLYGIGFGPFIITNKHLFRRNNGTLVVQSLHGVFKVKDTTTLQQHLVDGRDMIIIRMPKDFPPFPQKLKFREPQREERICLVTTNFQTKSMSSMVSDTSCTFPSGDGIFWKHWIQTKDGQCGSPLVSTRDGFIVGIHSASNFTNTNNYFTSVPKNFMELLTNQEAQQWVSGWRLNADSVLWGGHKVFMVKPEEPFQPVKEATQL

Variants of: B1
Assay: raw area under fraction-flipped curve 0-4 h after induction (AUC4h, not background-subtracted), DNA-recorder readout of cleavage of the substrate (dimensionless); higher = more cleavage of the substrate by the protease variant
Conditions: temperature: 34 °C; time window: 0-4 h after rhamnose induction
Experimental: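 In vivo DNA recorder in E. coli TOP10(DE3) ΔrhaA at 34 °C. Each TEVp single-site mutant (parent TEVp 0) is paired with a single-site variant of the 7-mer TEVs (canonical ENLYFQ|S). The substrate sits between flexible linkers in a Bxb1-sfGFP-TEVs-SsrA fusion, so cleavage stabilises Bxb1 and speeds flipping of a recombination array, read by NGS. The value is the raw area under the fraction-flipped curve over 0-4 h after rhamnose induction (AUC4h), with ≥20 reads per time point. It is not background-subtracted; inactive controls average about 0.047.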
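Further: Bxb1 expression induced with 0.2% (w/v) L-rhamnose at OD600 near 0.5, cultures sampled hourly, flipped fraction per protease–substrate barcode pair counted by paired-end Illumina sequencing.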

Variant | area with substrate ENAYFQS | area with substrate ENCYFQS | area with substrate ENEYFQS | area with substrate ENHYFQS | area with substrate ENQYFQS | area with substrate ENSYFQS | area with substrate ENVYFQS | area with substrate ENYYFQS | area with substrate ENDYFQS | area with substrate ENFYFQS | area with substrate ENMYFQS | area with substrate ENNYFQS | area with substrate ENIYFQS | area with substrate ENKYFQS | area with substrate ENPYFQS | area with substrate ENRYFQS | area with substrate ENTYFQS | area with substrate ENWYFQS | area with substrate ENGYFQS
R87P | 0.0534 | 0.0582 | 0.0571 | 0.056 | 0.058 | 0.0657 | 0.075 | 0.0617 |  |  |  |  |  |  |  |  |  |  | 
M88K | 0.0555 | 0.126 | 0.0507 |  | 0.0659 | 0.0551 |  |  | 0.0561 | 0.0475 | 0.0653 | 0.0534 |  |  |  |  |  |  | 
K90C | 0.0482 | 0.0665 | 0.0627 |  | 0.0678 | 0.0516 | 0.0855 | 0.066 | 0.0661 | 0.0623 | 0.0789 | 0.0641 | 0.0978 | 0.0536 | 0.048 | 0.0337 | 0.0896 | 0.0396 | 
K90Q | 0.0597 |  |  | 0.0477 | 0.0594 | 0.0696 | 0.0988 |  | 0.0515 | 0.0662 |  |  | 0.0766 |  | 0.0579 | 0.106 | 0.0715 |  | 0.0569
K90Y | 0.0664 | 0.0782 | 0.0498 |  |  |  | 0.0793 | 0.0558 | 0.0545 |  |  | 0.0684 |  |  |  | 0.0515 | 0.0429 | 0.0426 | 0.0551
D91V | 0.0736 | 0.0412 | 0.0775 | 0.0567 | 0.0538 | 0.0487 | 0.0751 |  | 0.0611 |  |  |  | 0.107 |  | 0.0553 | 0.0778 |  | 0.0658 | 
F92P | 0.0429 | 0.0517 | 0.0575 | 0.0534 | 0.0575 | 0.0575 |  |  | 0.0656 |  |  |  | 0.068 | 0.0522 | 0.0613 |  | 0.0593 |  | 
P93H | 0.0425 |  | 0.0652 |  | 0.0523 |  |  |  | 0.0477 |  |  |  |  |  |  |  |  |  | 
P93N | 0.0501 |  |  |  |  |  | 0.0616 |  |  | 0.0662 |  |  |  |  |  |  |  |  | 
P93R | 0.0686 |  |  | 0.0367 |  | 0.0552 |  |  |  |  |  |  |  | 0.0861 | 0.0615 | 0.0673 |  |  | 
P93Y | 0.0657 |  | 0.0658 |  |  |  | 0.0746 | 0.0579 |  |  | 0.0645 |  |  |  |  | 0.0662 |  | 0.0088 | 
F95T | 0.0394 | 0.0599 |  |  |  |  |  | 0.0609 | 0.0483 |  | 0.0675 |  |  |  |  | 0.0616 |  |  | 
P96G | 0.0561 |  |  |  |  | 0.0726 | 0.0772 |  |  |  |  |  |  |  | 0.068 | 0.0743 | 0.0558 |  | 0.0711
K98Y | 0.0506 | 0.0523 | 0.0521 | 0.0612 | 0.059 | 0.0682 | 0.0674 |  | 0.0518 | 0.0537 |  | 0.0678 |  | 0.064 | 0.0537 | 0.0495 | 0.0698 |  | 0.056
F101T | 0.0576 | 0.0975 | 0.0568 | 0.0578 | 0.0647 | 0.0666 | 0.0617 |  | 0.0677 | 0.0428 | 0.0645 |  | 0.0432 | 0.0514 |  | 0.0497 |  |  | 0.038
R102K | 0.0504 | 0.081 | 0.0628 |  | 0.0587 | 0.0526 | 0.0898 |  | 0.0575 | 0.119 |  | 0.0496 | 0.115 | 0.052 |  |  |  |  | 
P104E | 0.0507 | 0.0953 | 0.0528 | 0.0487 | 0.05 | 0.0579 | 0.0512 |  |  |  | 0.0487 | 0.0532 |  |  | 0.0435 | 0.0552 |  |  | 0.0523
P104Q | 0.0475 | 0.0582 |  |  |  | 0.0606 | 0.0548 | 0.0445 |  |  |  | 0.0506 |  | 0.0613 |  | 0.0538 | 0.0416 |  | 

Reference: the supplement of paper PMC12217912
